Data on 56 molecules can be found in ChEMBL document CHEMBL1201862, “PubChem BioAssay data set” (2004).

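48-hour exposure; five concentrations; linearly interpolated endpoints. GI50: concentration for 50% inhibition of growth.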 Active and inactive are the calls of the source. Cut-off read from the data, not from the text of the source: active = GI50 up to about 1.1 µM and inactive = higher.

This assay concerns NCI-H322M. Nature of the assay: growth of human tumour cells (NCI), 48 h.
With `O=C1c2ccccc2C(O)(O)C1(O)C1(O)C(=O)c2ccccc2C1(O)O` (stereo unspecified), the GI50 is inactive: > 100 µM.
The value for `COc1ccc2c(c1)c1nn(CCN(C)C)c3ccc4c(=O)n(CCN(C)C)c(=O)n2c4c13` was active: < 0.01 µM; that for `O=C1Nc2ccccc2/C1=N\c1cccc2ncccc12` was inactive: 58.3 µM.
Next, `CCCC1=C(CC)C(C(=O)Nc2c(C)cccc2C)=NC(S)N1` (stereo unspecified): inactive: > 100 µM; `O=C(O/C(=C(/N=N/c1ccccc1)c1ccccc1)c1ccccc1)c1ccccc1`: inactive: > 100 µM.
In the case of `C/C(=C/CNc1ncnc2c1ncn2CCC#N)CO`, the GI50 is inactive: 7.76 µM.
The value for `Cc1c/c(=N/NC(=O)c2ccncc2)n2nc(N)sc2n1` was inactive: > 100 µM; that for `CN[C@@H](C)[C@H](OP(=O)(O)OC1[C@@H](O)[C@H](O)C(O)[C@H](O)[C@@H]1O)c1ccccc1` (stereo partly specified) was inactive: > 100 µM.
Next, `COc1ccc(C(=O)O/N=C2\CCCC\C2=C/c2ccccc2)cc1`: inactive: > 100 µM.
Regarding `C[C@@H]1CC[C@@H]2[C@@H](C1)O[C@@H]([C@@H](C)OCc1ccccc1)SC2(C)C`, the GI50 was inactive: 27.5 µM.
For the molecule `CC(C)=CC(O)C/C(C)=C/CC/C(C)=C/CCC1(C)C(CCCO)/C(=C(/C)C=O)CCC1(C)O` (stereo unspecified), the GI50 is inactive: > 100 µM.
As for `COc1ccc(/C=C2\N=C3NC(=O)C(N4CCOCC4)=C(N)N3C2=O)cc1`, the GI50 is inactive: > 100 µM.
Next, `Cc1cn(C2OC(C)(CO)C(O)C2O)c(=O)[nH]c1=O` (stereo unspecified): inactive: > 100 µM.
Next, `COc1cc2c(c(OC)c1OC)C(=O)CC2N` (stereo unspecified): inactive: > 100 µM; `O=C(CSc1nnc(Cc2ccccc2)o1)Nc1ccccc1Cl`: inactive: > 100 µM; `O=[N+]([O-])c1ccc(C2N3CCCCC3[C@H]3CCCCN23)cc1` (stereo partly specified): inactive: > 100 µM.
As for `COc1cc(C)cc2c1C(=O)C(Br)=CC2=O`, the GI50 was inactive: 17.7 µM.
Turning to `Cc1nc2ccc(Cl)cc2c2c1CCS2`, the GI50 is inactive: > 100 µM.
Turning to `O=P1(Oc2ccccc2)C(c2ccccc2)C(c2ccccc2)=NN1c1ccccc1` (stereo unspecified), the GI50 is inactive: 24.9 µM.
Next, `S=c1[nH]c(=S)c2nnn(-c3ccccc3)c2[nH]1`: inactive: > 100 µM.
Next, `CCOC(=O)C1=C(C)N(Cc2ccccc2)C2(O)C=CC(O)=C3C(=O)c4ccccc4C(=O)C312` (stereo unspecified): inactive: 14.6 µM; `O=C1C2Nc3ccccc3SC2C(=O)N1c1ccccc1C(F)(F)F` (stereo unspecified): inactive: 42.2 µM; `O=C(Nc1cccc(NC(=O)c2cc(=O)c3ccccc3o2)n1)c1cc(=O)c2ccccc2o1`: inactive: 15 µM.
The value for `CC(C)CCC[C@@H](C)[C@H]1CC[C@H]2[C@@H]3CC[C@H]4C[C@H](N)CC[C@]4(C)[C@H]3CC[C@]12C` was inactive: 12.2 µM; that for `O=c1c2ncn(C3CCCCO3)c2n(-c2ccccc2)c(=S)n1-c1ccccc1` (stereo unspecified) was inactive: > 73.1 µM.
As to `COc1cc(C(c2ccc3c(c2)OCO3)N2C(=O)CCC2C(=O)O)cc(OC)c1OC` (stereo unspecified), the GI50 is inactive: > 100 µM.
For the molecule `CCCC(=O)OCC1OC(n2cc(F)c(=O)[nH]c2=O)C(F)C1OC(=O)CCC` (stereo unspecified), the GI50 is inactive: 58.7 µM.
Consider `CCC1(N=[N+]=[N-])C(=O)Nc2cc(C)ccc2C1=O` (stereo unspecified), for which the GI50 is inactive: > 100 µM.
The value for `CSc1nc(NC2OCC(OC(C)=O)C(OC(C)=O)C2OC(C)=O)c(/N=C(\C)C(C)=O)c(=O)n1C` (stereo unspecified) was inactive: > 100 µM; that for `CC1=CCC[C@H]2[C@](C)(CC3=CC(=O)C4SCCSC4C3=O)[C@@H](C)CC[C@]12C` (stereo partly specified) was inactive: > 10 µM.
With `c1ccc(-c2nnc(-c3nn(-c4ccccc4)c4nc5ccccc5nc34)o2)cc1`, the GI50 was inactive: > 100 µM.
Consider `COC(=O)C1=COC2OC3/C(=C\c4ccc(O)c(OC)c4)C(=O)OC34C=CC1C24` (stereo unspecified), for which the GI50 was inactive: 17.7 µM.
Regarding `COc1ccc(/C(C)=N/NC(N)=S)c(OC)c1`, the GI50 is inactive: > 100 µM.
Next, `C/C(CC(=O)Nc1ccc(Cl)c(Cl)c1)=N/NC(=O)C[N+](C)(C)C`: inactive: > 100 µM; `COc1cc(N(CCC#N)CCC#N)ccc1C(=N/NC(=O)c1cc(Br)ccc1O)/N=N/c1ccccc1`: inactive: 28.1 µM; `OCC1CCCCN1Cc1nc2cc(Cl)ccc2[nH]1` (stereo unspecified): inactive: > 100 µM.
The value for `CCc1n[nH]c(=O)n1N1C(=O)CCC1=O` was inactive: > 100 µM; that for `COc1ccc(C2C(Cl)C(=O)N2n2cnc3ccccc3c2=O)cc1` (stereo unspecified) was inactive: > 100 µM; that for `COc1ccc(C2=NNC(=O)c3ccccc3N2c2nc(-c3cccs3)nc3ccc(Br)cc23)cc1` was inactive: 32.7 µM.
Regarding `C=CCOC(=O)NC1C(OC(C)[C@@H](NC(=O)OCc2ccccc2)C(=O)OC(C)(C)C)OC(COC(C)=O)C(OC(C)=O)C1OC(C)=O` (stereo partly specified), the GI50 is inactive: > 100 µM.
Next, `CC1(C)OC(=O)N(c2ccccc2)C12C=Cc1cc([N+](=O)[O-])cc([N+](=O)[O-])c1O2` (stereo unspecified): inactive: > 100 µM.
The value for `CC(C(=O)c1ccccc1)C(c1ccccc1)N1CCOCC1` (stereo unspecified) was inactive: > 100 µM.
On to `COC(=O)C1=CC[C@@H]2C(C(=O)O)=CO[C@@H](OC3OC(CO)C(O)C(O)C3O)[C@H]12` (stereo partly specified), for which the GI50 is inactive: > 155 µM.
Next, `CN(C)c1n/c(=N/Cc2ccncc2)ss1`: inactive: > 100 µM.
Next, `N#CC(Nc1cccc(C(F)(F)F)c1)c1ccccc1C(F)(F)F` (stereo unspecified): inactive: 5.92 µM; `CC1(C)CC(N(C(=O)/C=C/c2ccc([N+](=O)[O-])o2)C2CCCCC2)CC(C)(C)N1`: inactive: 13.4 µM.
Next, `COc1c(O)cc2c(c1O)C(=O)C(Cc1ccc(O)cc1)CO2` (stereo unspecified): inactive: > 100 µM.
In the case of `CCCC[C@@H](C)/C=C1\CN2CCC[C@H]2[C@@](C)(OCc2ccccc2)[C@@H]1O`, the GI50 was inactive: > 14.7 µM.
`CC(C)(C)c1ccccc1N1C(=O)c2ccc3c4c(ccc(c24)C1=O)N(c1ccccc1C(C)(C)C)C3=O`: the GI50 was inactive: > 100 µM.
The value for `Cc1ccc(N2C(=O)/C(=C/c3ccc(N(CCC#N)CCC#N)cc3C)N=C2c2cc([N+](=O)[O-])ccc2Cl)cc1` was inactive: > 100 µM; that for `CCC1(C)C=Cc2c(cc(OC)c3c(=O)c4ccccc4n(C)c23)O1` (stereo unspecified) was inactive: > 10 µM; that for `C/C=N\N1C(=O)c2ccccc2C1=O` was inactive: > 100 µM.
Take `O=S1OC(c2ccccc2)(c2ccccc2)C(c2ccccc2)(c2ccccc2)O1`: the GI50 is inactive: > 100 µM.
Next, `COC(=O)[C@@]12OC[C@]34C([C@@H](O)C1O)[C@@]1(C)CC(=O)C(OC(=O)/C=C(/c5ccccc5)C(F)(F)F)=C(C)C1C[C@H]3OC(=O)[C@H](O)[C@H]42` (stereo partly specified): inactive: 29.9 µM; `Cc1ccc(CC2(OCCN(C)C)CCC(C(C)(C)C)CC2)cc1` (stereo unspecified): inactive: 1.98 µM; `CSc1ccc2c(cc1=O)[C@@H](NC(=O)c1ccc(Cl)cc1)CCc1cc(O)c(O)c(O)c1-2`: inactive: 65.9 µM.
